In PubChem BioAssay AID504339 (National Center for Advancing Translational Sciences (NCATS), 2011):
Screen size: about 390,000 compounds; about 17,000 (4.4%) were called active. This list was built around the results that the source calls inconclusive (neither active nor inactive); the mix of calls is not that of the screen. Calls come from the whole dose curve; as a rule, active = well fitted inhibition curve with a large enough effect; inconclusive = small, poorly fitted or top-dose-only effect; inactive = no such curve, though single readings can be large or run the other way. Where the call is inconclusive, the potency comes from a doubtful curve fit.

Each compound was assayed against Lysine-specific demethylase 4A (Homo sapiens) (UniProt O75164) (assay: qHTS Assay for Inhibitors of JMJD2A-Tudor Domain). Conditions: AlphaScreen JMJD2A-Tudor / H3K4me3 peptide binding; series mostly up to 114 µM.
Note: nearly all actives have a fitted effect of over 50% in size.
Potency is the fitted concentration of half-maximal effect; tags give direction and shape of the fitted curve.

Chain of UniProt O75164 (O75164 whole entry, looked up, the tested form may be a part): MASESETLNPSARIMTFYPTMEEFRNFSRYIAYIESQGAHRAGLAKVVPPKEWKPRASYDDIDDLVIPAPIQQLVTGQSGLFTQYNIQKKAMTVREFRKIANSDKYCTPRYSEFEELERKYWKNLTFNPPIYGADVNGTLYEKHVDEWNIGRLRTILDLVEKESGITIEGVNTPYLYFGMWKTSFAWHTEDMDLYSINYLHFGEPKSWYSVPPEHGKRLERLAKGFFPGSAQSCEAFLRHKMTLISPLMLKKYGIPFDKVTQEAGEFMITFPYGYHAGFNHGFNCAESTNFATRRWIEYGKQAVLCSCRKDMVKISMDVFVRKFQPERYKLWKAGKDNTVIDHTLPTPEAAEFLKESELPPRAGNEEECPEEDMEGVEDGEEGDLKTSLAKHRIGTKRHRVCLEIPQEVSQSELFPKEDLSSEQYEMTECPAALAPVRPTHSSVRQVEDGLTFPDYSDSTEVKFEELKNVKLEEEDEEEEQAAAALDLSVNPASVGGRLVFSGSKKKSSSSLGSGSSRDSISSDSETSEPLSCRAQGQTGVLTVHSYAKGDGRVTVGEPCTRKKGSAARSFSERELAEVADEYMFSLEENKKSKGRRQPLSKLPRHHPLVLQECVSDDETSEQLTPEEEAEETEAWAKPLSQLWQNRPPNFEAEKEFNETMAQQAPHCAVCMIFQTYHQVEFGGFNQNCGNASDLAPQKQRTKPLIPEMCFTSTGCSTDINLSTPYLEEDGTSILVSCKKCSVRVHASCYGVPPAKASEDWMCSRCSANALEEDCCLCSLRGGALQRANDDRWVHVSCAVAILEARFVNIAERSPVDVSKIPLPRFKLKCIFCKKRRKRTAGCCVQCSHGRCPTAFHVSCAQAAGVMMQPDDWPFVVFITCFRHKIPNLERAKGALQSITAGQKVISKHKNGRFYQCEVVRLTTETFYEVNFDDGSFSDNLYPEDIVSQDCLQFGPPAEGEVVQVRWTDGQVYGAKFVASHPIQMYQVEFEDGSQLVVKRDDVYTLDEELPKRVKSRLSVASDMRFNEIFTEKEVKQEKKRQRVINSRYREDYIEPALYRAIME

Potency, inactive:
COc1ccc(S(=O)(=O)NCCSCc2ccco2)cc1
CCCN1C2CCCC1CC(NC(=O)c1ccc(C(C)(C)C)cc1)C2 (centres undefined)
O=C(NCc1ccco1)c1cnc2sccn2c1=O
CCOc1ccccc1NC(=O)C(=O)NCC(c1cccnc1)N1CCN(c2ccccc2)CC1 (centres undefined)
Cc1oc2c(c1C(=O)NCc1cccnc1)C(=O)c1ccccc1C2=O
Cc1ccc(NN2C(=O)C=CC2=O)cc1
CC(COc1cccc2ccccc12)CN1CCN(C)CC1 (centres undefined)
CC(C)CC(OC(=O)c1nsc(Cl)c1Cl)C(=O)NC1CCCC1 (centres undefined)
COC(=O)C1CCN(C(=O)C2CC(=O)N(c3ccc(C)c(Cl)c3)C2)CC1 (centres undefined)

Potency, active:
CCOC(=O)N1CCN(c2ccc(O)cc2)CC1 35.5 µM
COc1cccc(-n2c(SCc3cc(=O)oc4cc(O)c(O)cc34)nc3ccccc3c2=O)c1 39.8 µM
CC(=NNc1nc2ccccc2o1)c1cc2ccccc2cn1 10 µM
O=C(OCC1OC(n2ncc(=O)[nH]c2=O)C(OC(=O)c2ccccc2)C1OC(=O)c1ccccc1)c1ccccc1 (centres undefined) 50.1 µM
CCc1cccc(OCCCCNCCOC)c1 7.08 µM
CCOc1ccc(OCCn2ccnc2)cc1 5.01 µM
CC1C=CC=CC=CC=CC=CC=CC=CC(OC2OC(C)C(O)C(N)C2O)CC2OC(O)(CC(O)CC(O)C(O)CCC(O)CC(O)CC(=O)OC(C)C(C)C1O)CC(O)C2C(=O)O (centres undefined) 11.2 µM
C/C=C/C=C/C(=O)[C@@H]1[C@@H]([C@]2(C)OC(=O)C(C)=C2O)[C@H]2/C(=C(O)/C=C/C=C/C)C(=O)[C@]1(C)C(=O)C2(C)O (some centres undefined) 44.7 µM
CCN(CC)CCOCCOC(=O)C1(c2ccccc2)CCCC1 31.6 µM
C#CCOCCOCCOCCNc1nc(N2CCN(C(=O)[C@H](CCCCN)n3cc([C@@H](N)C(C)CC)nn3)CC2)nc(N2CCN(C(=O)[C@H](Cc3cc4ccccc4[nH]3)n3cc([C@@H](N)C(C)CC)nn3)CC2)n1 (some centres undefined) 50.1 µM

Potency, inconclusive:
O=S(=O)(Nc1cc(O)cc2cccnc12)c1ccc(Br)s1 56.2 µM [inhibitor, partial curve]
O=C(CNC(=O)c1ccncc1)N/N=C/c1cc(Br)ccc1OCc1ccccc1 50.1 µM [inhibitor, partial curve]
COc1ccc(Nc2nc(C)c(-c3ccccc3)s2)cc1 70.8 µM [inhibitor, single point]
CC1CCC(N2CCN(c3ccc([N+](=O)[O-])cc3)CC2)CC1 (centres undefined) 31.6 µM [inhibitor, full curve]
CSCCC(NC(=O)COc1ccccc1)C(=O)N(C)Cc1ccc(SC)cc1 (centres undefined) 100 µM [inhibitor, partial curve]
COc1ccc(Nc2nc(N3CCOCC3)nc(N3CCOCC3)n2)cc1Cl 100 µM [inhibitor, single point]
CSCC[C@H](NC(=O)Cc1ccc(Cl)cc1)C(=O)N1CCC2(CC1)NCCc1[nH]cnc12 100 µM [inhibitor, single point]
COCCCNC(=O)C(C)N1c2cccc3cccc(c23)S1(=O)=O (centres undefined) 28.2 µM [inhibitor, single point]
Cc1ccc(C2Nc3cccc4cccc(c34)N2)cc1 50.1 µM [inhibitor, partial curve]
N#C/C(=C\c1ccc([N+](=O)[O-])o1)C(=O)Nc1ccc(F)cc1 63.1 µM [inhibitor, partial curve]
COc1cccc(NC(=O)NC2CCN(CC(=O)Nc3ccccc3[N+](=O)[O-])CC2)c1 56.2 µM [inhibitor, partial curve]
CCOc1ccc(NC(C(=O)Nc2cccc(C(C)=O)c2)c2ccccc2)cc1 (centres undefined) 39.8 µM [inhibitor, partial curve]
COc1cc(NC(=S)NC(=O)c2ccccc2F)ccc1NC(=O)c1ccco1 89.1 µM [inhibitor, single point]
Cc1cccc(Cn2cnc3c(N)c(C)c(C)cc32)c1 89.1 µM [inhibitor, partial curve]
S=C(NCC1CCCO1)Nc1ccc(Cl)c(Cl)c1 (centres undefined) 25.1 µM [inhibitor, partial curve]
Cc1cc(C)c2nc(NNC(=O)c3ccc(S(=O)(=O)N4CCCC(C)C4)cc3)sc2c1 (centres undefined) 10 µM [inhibitor, full curve]
COc1cc(/C=C2\C(=N)N3N=C(N4CCOCC4)SC3=NC2=O)ccc1OC(=O)c1ccccc1 56.2 µM [inhibitor, partial curve]
CCOc1ccccc1OCCOCCN1CC(C)OC(C)C1 (centres undefined) 0.708 µM [inhibitor, full curve, poor fit]
CCCn1c(C(C)NS(=O)(=O)c2ccccc2)n[nH]c1=S (centres undefined) 3.16 µM [inhibitor, single point]
CC(=O)Nc1ccc(Nc2ccc(S(=O)(=O)C(F)(F)F)cc2[N+](=O)[O-])cc1 39.8 µM [inhibitor, partial curve]
COc1ccc(NS(=O)(=O)c2cc3c(cc2C)N(C)CCO3)cc1 28.2 µM [inhibitor, full curve]
Cc1[nH]c2ccccc2c1/C=N/NC(=S)NC(C)C 50.1 µM [inhibitor, partial curve]
O=C(NC(=S)N1CCN(Cc2ccccc2)CC1)c1ccccc1 35.5 µM [inhibitor, single point]
COc1ccc(C[C@H]2CN3C(=NC[C@@H]3Cc3ccc(O)cc3)N2C[C@H](C)NC(=O)c2ccc(C)c(Br)c2)cc1 44.7 µM [inhibitor, partial curve]
CCOc1ccc(CN(C)CC(O)COC(c2ccc(OC)cc2)c2ccc(OC)cc2)cc1 (centres undefined) 50.1 µM [inhibitor, partial curve]
